Test results as given in the supplement of paper PMC8728848.
The other results are listed elsewhere or left out.

Tests used:
Experiment in all cases: glycan array binding signal (z-score within array); higher = stronger binding
Settings in all cases: glycan notation: IUPAC condensed, linker removed
Gal3S(b1-4)Glc = target: Gal3S(b1-4)Glc
Outline: (§1)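 Negative Z-scores can be read as non-binding. The Z-score is calculated within each array and then averaged across arrays of one protein sequence at different concentrations or buffers and across linkers. Arrays, 3228 in all, were curated from the Consortium for Functional Glycomics database and kept only where the protein sequence was available.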

Gal3S(b1-4)Glc6S = target: Gal3S(b1-4)Glc6S
Outline: as §1

Gal3S(b1-4)GlcNAc = target: Gal3S(b1-4)GlcNAc
Outline: as §1

Gal3S(b1-4)GlcNAc6S = target: Gal3S(b1-4)GlcNAc6S
Outline: as §1

Gal3S6S(b1-4)GlcNAc = target: Gal3S6S(b1-4)GlcNAc
Outline: as §1

Gal3S6S(b1-4)GlcNAc6S = target: Gal3S6S(b1-4)GlcNAc6S
Outline: as §1

Gal4S(b1-4)GlcNAc = target: Gal4S(b1-4)GlcNAc
Outline: as §1

Gal4S6S(b1-4)GlcNAc = target: Gal4S6S(b1-4)GlcNAc
Outline: as §1

Gal6S(b1-4)Glc = target: Gal6S(b1-4)Glc
Outline: as §1

Gal6S(b1-4)Glc6S = target: Gal6S(b1-4)Glc6S
Outline: as §1

Gal6S(b1-4)GlcNAc = target: Gal6S(b1-4)GlcNAc
Outline: as §1

GalNAc(a1-3)Gal = target: GalNAc(a1-3)Gal
Outline: as §1

GalNAc(a1-3)GalNAc = target: GalNAc(a1-3)GalNAc
Outline: as §1

[1] = target: GalNAc(b1-3)Gal(a1-4)Gal(b1-4)GlcNAc
Outline: as §1

GalNAc(b1-4)GlcNAc = target: GalNAc(b1-4)GlcNAc
Outline: as §1

Glc(a1-4)Glc = target: Glc(a1-4)Glc
Outline: as §1

Glc(a1-6)Glc(a1-6)Glc = target: Glc(a1-6)Glc(a1-6)Glc
Outline: as §1

Glc(b1-4)Glc = target: Glc(b1-4)Glc
Outline: as §1

Glc(b1-6)Glc = target: Glc(b1-6)Glc
Outline: as §1

GlcA(b1-3)Gal = target: GlcA(b1-3)Gal
Outline: as §1

GlcA(b1-6)Gal = target: GlcA(b1-6)Gal
Outline: as §1

[2] = target: GlcNAc(a1-3)Gal(b1-4)GlcNAc
Outline: as §1

[3] = target: GlcNAc(a1-6)Gal(b1-4)GlcNAc
Outline: as §1

[4] = target: GlcNAc(b1-2)Gal(b1-3)GlcNAc
Outline: as §1

[5] = target: GlcNAc(b1-2)Man(a1-3)[GlcNAc(b1-2)Man(a1-6)]Man(b1-4)GlcNAc(b1-4)GlcNAc
Outline: as §1

GlcNAc(b1-3)Gal = target: GlcNAc(b1-3)Gal
Outline: as §1

[6] = target: GlcNAc(b1-3)Gal(b1-3)GalNAc
Outline: as §1

GlcNAc(b1-3)Gal(b1-4)Glc = target: GlcNAc(b1-3)Gal(b1-4)Glc
Outline: as §1

[7] = target: GlcNAc(b1-3)Gal(b1-4)GlcNAc
Outline: as §1

[8] = target: GlcNAc(b1-3)Gal(b1-4)GlcNAc(b1-3)Gal(b1-4)GlcNAc
Outline: as §1

GlcNAc(b1-3)GalNAc = target: GlcNAc(b1-3)GalNAc
Outline: as §1

[9] = target: GlcNAc(b1-3)[GlcNAc(b1-4)][GlcNAc(b1-6)]GlcNAc
Outline: as §1

[10] = target: GlcNAc(b1-3)[GlcNAc(b1-6)]Gal(b1-4)GlcNAc
Outline: as §1

[11] = target: GlcNAc(b1-3)[GlcNAc(b1-6)]GlcNAc
Outline: as §1

[12] = target: GlcNAc(b1-4)Gal(b1-4)GlcNAc
Outline: as §1

[13] = target: GlcNAc(b1-4)GlcNAc(b1-4)GlcNAc
Outline: as §1

[14] = target: GlcNAc(b1-4)GlcNAc(b1-4)GlcNAc(b1-4)GlcNAc(b1-4)GlcNAc
Outline: as §1

B1: STA (Solanum tuberosum), Q9S8M0 (protein)
chain: NASPPSPSPLPYPQCGMKKGGGKCIKTGECCSIWGWCGTTNAYCSPGYCQKQCPGPYPEGRCGWQANGKSCPTGTGQCCSNGGWCGTTSDYCASKNCQSQCKLPSPPPPPPPPSPPPPSPPSPPPPSPPPPPPPSPPPPSPPPPSPSPPPPPASPPPPPPALPYPQCGIKKGGGKCIKTGECCSIWGWCGTTNAYCSPGYCQKQCPGPYPEGRCGWQANGKSCPTGTGHCCSNAGWCGTTSDYCAPVNCQAQCNTTTLTSPIKNRMRGIESFMLNVV
- glycan array binding signal (z-score) (Gal3S(b1-4)Glc): -0.501
- glycan array binding signal (z-score) (Gal3S(b1-4)Glc6S): -0.462
- glycan array binding signal (z-score) (Gal3S(b1-4)GlcNAc): 1.52
- glycan array binding signal (z-score) (Gal3S(b1-4)GlcNAc6S): 1.94
- glycan array binding signal (z-score) (Gal3S6S(b1-4)GlcNAc): -0.521
- glycan array binding signal (z-score) (Gal3S6S(b1-4)GlcNAc6S): 1.24
- glycan array binding signal (z-score) (Gal4S(b1-4)GlcNAc): 1.95
- glycan array binding signal (z-score) (Gal4S6S(b1-4)GlcNAc): -0.531
- glycan array binding signal (z-score) (Gal6S(b1-4)Glc): -0.553
- glycan array binding signal (z-score) (Gal6S(b1-4)Glc6S): -0.504
- glycan array binding signal (z-score) (Gal6S(b1-4)GlcNAc): -0.398
- glycan array binding signal (z-score) (GalNAc(a1-3)Gal): -0.568
- glycan array binding signal (z-score) (GalNAc(a1-3)GalNAc): -0.582
- glycan array binding signal (z-score) [1]: 1.69
- glycan array binding signal (z-score) (GalNAc(b1-4)GlcNAc): 1.92
- glycan array binding signal (z-score) (Glc(a1-4)Glc): -0.581
- glycan array binding signal (z-score) (Glc(a1-6)Glc(a1-6)Glc): -0.586
- glycan array binding signal (z-score) (Glc(b1-4)Glc): -0.594
- glycan array binding signal (z-score) (Glc(b1-6)Glc): -0.592
- glycan array binding signal (z-score) (GlcA(b1-3)Gal): -0.601
- glycan array binding signal (z-score) (GlcA(b1-6)Gal): -0.578
- glycan array binding signal (z-score) [2]: 1.74
- glycan array binding signal (z-score) [3]: -0.577
- glycan array binding signal (z-score) [4]: -0.587
- glycan array binding signal (z-score) [5]: -0.577
- glycan array binding signal (z-score) (GlcNAc(b1-3)Gal): -0.595
- glycan array binding signal (z-score) [6]: -0.534
- glycan array binding signal (z-score) (GlcNAc(b1-3)Gal(b1-4)Glc): -0.601
- glycan array binding signal (z-score) [7]: 0.717
- glycan array binding signal (z-score) [8]: 1.68
- glycan array binding signal (z-score) (GlcNAc(b1-3)GalNAc): -0.585
- glycan array binding signal (z-score) [9]: -0.592
- glycan array binding signal (z-score) [10]: -0.59
- glycan array binding signal (z-score) [11]: -0.581
- glycan array binding signal (z-score) [12]: 1.17
- glycan array binding signal (z-score) [13]: 1.71
- glycan array binding signal (z-score) [14]: 1.75
